Results as given in the RNAGym collection of RNA variant scans (doi:10.7554/elife.90254).
The source gives no read counts; variants with many changes may rest on few reads.

B1: OR4K15 (parent)
chain: GUUAACGGUCAUAGGCCAUGGAAACUAGGAGCACCAUUUCGCUGCCAGUGAAGAAAUGAACAAAGAAAAUCUGGGCCAGGCAGGCAUCAAAAGAAAUAGUCUUGCGCUCAACCAGAAAGUCUGUAAUCAUUUUAAGGGUA

Variants of: B1
Experiment: self-cleavage, relative activity (ratio to wild type); higher = more cleavage; in vitro, sequencing; the parent is a self-cleaving ribozyme

Variant | self-cleavage
A68C A69U A82C U108C | 0.03
A66G A91G U122G | 2.53
A63G G80A U103C | 0.16
A64U G84A A89C | 1.49
A62G A78G G79A A114G U132C | 0.04
A68G A69G A91G | 0.52
A62G A63G U87C A126U | 1.02
A64G U100A A110G A135G | 0.09
A67G A86U U100C U102A | 2.06
A62G U87C A94G U122C A126G A129G | 0.19
A62G A63G A66G A68G | 0.86
A63U A69G A82U | 0.27
A67U A86G U100A A129G | 0.53
A63G A69G A135G | 2.43
A62G A67G A69G A110U | 0.54
A63G A64G A96G | 0.74
A68G A90G U139C | 1.2
A60U C61U U100C | 2.21
A62G U87C A95G | 2.03
A62C A118G U131C G136U | 1.55
A67G A82G A129U | 0.45
A68G A92G A117G | 1.85
A66G A67G U122C | 1.25
A62G A64G U103C A117G | 0.55

Variant | self-cleavage
A62U A78U A111G | 0.02
A66G A82G A86G | 0.11
C61U A63G A64G A68G A94G | 1.13
A66G A78G A118G | 0.08
A63G A117G U130C | 1.42
A62G A68U A92U A117G | 2.19
A67U A78G C88U | 0.1
A64U A68G A94G C105U | 0.05
A66G A86G A96G | 2.08
A63G A92G U132C G137U | 1.75
A66G A95G A118G A125G | 0.44
A62G A90G A96U U103C U122C | 0.14
A64G A89G U131C | 1.27
A67G A68G G79U | 0.08
A63G A68G A90U G104A | 0.03
A64G A114U U120C | 0.08
A63G A67G U120C | 1.16
A62G A63U U70C A91U A98G U102A | 0.02
A63G U87C A110G A118G | 0.06
A66G A116G A135G | 0.44
A63G A116G A117U G119A | 1.28
A62U A91G A129C | 0.91
A63U A110G A125G | 0.1
A66G A90C A117G | 1.46

Variant | self-cleavage
A67G U87C U120C | 0.73
A62G A68G G106A | 0.02
A66G A129U G137U | 1.66
A67C A69G U87C A94G | 0.89
A63G A68C A118G U122C G137A | 0.98
A67G A69G A96G | 1.67
A64G A111G U127C | 0.01
A62U G79A A98U | 0.09
A66G U70C A92G U102C | 0.32
A64G A67U U87A | 1.28
A67G A94G A98U U132C | 1.68
A63G U120C A134G | 0.49
A63G C76U U87A C112G | 0.01
A64G U108C A110C A118G | 0.01
A67G C77A U122C | 0.71
A63G A94U A114G U120C U131C | 0.07
A64G A86U A92G U100C A118G | 1.73
A62G A68U A110G A116G | 0.04
A64U A66U A86G | 0.57
A63U A94G A96G | 1.42
A64U A69G A86G | 1
A62G A82G A89G U120C | 0.09
A66G A116U U120C | 0.34
A67G A78C U102C U122C | 0.33

Variant | self-cleavage
A63G U87C A92C A94G U102C U133C | 1.93
A64G A90G A116U | 0.11
A60U U120C A134G | 0.53
A62G G73A A91G U97A | 0.06
A66U A117G A140G | 0.53
A64G U100C A140G | 2.28
A66U U72C G75A A89U | 0.21
A67G A86G U102G | 0.27
A64G A90U A135G | 1.91
A62G A64C A68G A116U U139C | 0.13
A62G A69G A117U | 0.48
A67G A118G A126G | 0.58
A62G A64G A86G U139C | 0.9
A64C A89G A95G U127C U131A | 1.21
C61U U72C A110G A126G | 0.01
A62G G74A A110G | 0.01
A68C A82G A86G | 0.16
A63G A95G U100A A116G A126G | 0.42
A68G A90G A111C | 0
A63G A82U U122A | 0.19
A63G A66U A86G | 2.04
A64G A78G A140G | 0.19
A62U A82G U87C | 0.13
A68G A82G U132A | 0.38

Variant | self-cleavage
A66G A67G U108A | 0.02
A63U A67G A68U | 1.59
A67G U120G A125G | 1.31
A68G A78G U87C U130C | 0.22
A63G A68G A78U U100C | 0.88
A62G A63G A114U | 0.1
A63G A69G A82G | 0.28
A62G U70A U122C U132A | 1.04
A64G U70C A78U U97C U102C U103C | 0.04
A67G A111G A129G | 0
A67G A82G U139C | 0.5
A64G A68G A90G A111G A125C | 0.01
A62G U87A A118G | 0.67
A64C C77U C88U | 1.66
A67G A82G U132C | 0.4
A66G U124C A126G A134G | 0.87
A63G A69U C76U A117G | 0.1
A62G A63C A116G G119A U127C | 1.07
A66G A78U A90G | 0.18
A67G A95G A98G A118U | 1.94
A63G A86G A116G A117G U122C | 0.1
A66G U97A A117G U120G | 1.5
A67G A86G A89G A96U | 1.64
A62G A67G A78G | 0.25

Variant | self-cleavage
A67G A90G A117G | 1.54
A64G C85A A86G | 1.49
A67G U72A A90G A96G A98G | 0.1
A67G U72C U97A A98C A126G | 0.1
A66G A129G U130C | 1.4
A67G A116G U120C | 0.29
A64G A90G A95G | 2.03
A68G A69G A94G A118G | 0.97
A64C A92U U120C A125U | 0.12
A66G U103C U108C | 0.01
A64G U87C A111G A118U | 0
A68G A92G U102C | 1.45
A68G A82G A111G A116G | 0.18
C61U C105U A117G | 0.31
A64G C105U A118G | 0.19
A62G U100C A110G U127C U131C | 0.11
A67G G74U A111G | 0.02
A67G A86G A91G U102A U120C U127A | 0.43
A62C A69C A98U A111G | 0.02
A60U U70A A96U | 1.14
A64G U87C A111G A116G A135G | 0.01
A62U A92G A110U | 0.43
A68G A82G A92G A125U | 0.3
A67G U120C U131C | 1.05

Variant | self-cleavage
A60U C121U A125G | 1.33
A63G A78G A94G A98G | 0.16
A63G U72C A92G | 0.21
A67G U70C G136C | 0.83
A62G A78G U131C | 0.14
A66G U120C U124C | 0.51
A62U U87G A91G A96G A126U | 0.1
A60U A94U A140G | 1.62
A66G A110U U130C | 0.87
A64G G80A A96G | 0.21
A66G A78G U122C | 0.27
A67G A82C A126G | 0.1
A62G A64G A92G U97A | 1.31
C61U A129G A140U | 1.39
A63G U102C U103C A111G | 0.02
A66G A117G U120C | 2.1
A62U A94G G138A | 1.59
A63U A95G A110C | 0.51
A66G A89U A92G | 1.47
A66G A95G U131C A134G | 1.35
A67G U87G A140G | 0.73
A67U A78U A90G A91G | 0.23
A67G A98G A135G | 0.65
